Broadly, the % Inhibition is the relative decrease from the control value, in per cent.

Screen size: about 150,000 compounds; about 540 (0.36%) showed an effect of 50% or more. The list shows a part of the results.

Experimental findings from ChEMBL document CHEMBL4888484, “Replenishing the malaria drug discovery pipeline: Screening and hit evaluation of the MMV Hit Generation Library 1 (HGL1) against asexual blood stage Plasmodium falciparum ,using a nano luciferase reporter read-out” (2022) are described below.

The experiment deals with Plasmodium falciparum. The experiment is described as follows: Primary screen in NF54 nanoGlo assay, in single point, at 2uM, 72h; a lower Z score goes with more inhibition. Type of experiment: functional, Erythrocyte. The settings on record: timepoint 72 hour.
Consider `CCOc1ccccc1OC/C=C/CN1CCC[C@H](C)C1`, for which the “% Inhibition” value is on record as -4% and the Z score is given as 0.48.
Take `Cc1nc(C(=O)N[C@H](C(N)=O)c2ccccc2)cs1`: the “% Inhibition” value came out at 0% and the Z score came out at 0.08.
Turning to `CCN1CCC2CCC(C1)N2C(=O)C(=O)Nc1ccc(C#N)cc1` (centres undefined), the “% Inhibition” value is listed as -6% and the Z score was 0.62.
As for `COC[C@H]1CN(C2CCC2)CC12CCN(C(=O)c1ccc3ncccc3c1)CC2`, the “% Inhibition” value amounted to 2% and the Z score was -0.2.
On the same counts, the results for `CN1CCN(c2cccc(NC(=O)NCCc3c[nH]cn3)c2)C1=O` are -1% and 0.18.
The like results for `Cc1ccc(F)cc1C(=O)O[C@H]1CCCN(c2ccnc(N)n2)C1` were, in that order, -4% and 0.62.
On the same counts, the results for `CNC(=O)[C@@H](C)CN(C)c1nccn2ccnc12` are -25% and 3.33.
With `CC(C)(C)c1ncc(-c2cc(F)cc3cccnc23)[nH]1`, the “% Inhibition” value is reported as -16% and the Z score amounted to 1.82.
On the same counts, the results for `Cc1c(-c2ccc(CN(C)C)cc2)c(=O)n(C)c(=O)n1C` are -7% and 0.84.
On the same counts, the results for `Cc1[nH]ccc1C(=O)N(C)Cc1nc(CC(C)C)no1` are 6% and -0.85.
On the same counts, the results for `COc1ccccc1N1CCN(CCCNC(=O)c2nn(-c3ccc(C)cc3)c(=O)n(C)c2=O)CC1` are -10% and 0.87.
Consider `Nc1nnnn1CC(=O)N[C@H]1CCOC[C@@H]1Oc1ccccn1`, for which the “% Inhibition” value is -17% and the Z score was 3.4.
On the same counts, the results for `CC[C@@H]1Oc2ccc(NC(=O)c3ccccc3F)cc2CN(Cc2ccc3c(c2)OCO3)C1=O` are -12% and 1.33.
The like results for `COc1ccc(NC(=O)Cc2c(C)nn(-c3nc(C)cs3)c2O)cc1` were, in that order, -16% and 1.98.
On the same counts, the results for `Cc1cc(=O)n(CC(=O)NCc2ccccc2Cl)c(Nc2ccc(F)cc2)n1` are -20% and 2.1.
In the case of `CC12CCN(C(=O)C3=CCC3)CC1C2(F)F` (centres undefined), the “% Inhibition” value is -6% and the Z score turned out to be 0.8.
On the same counts, the results for `COc1ccc(-c2c[nH]nc2-c2ccc(OCc3ccc(C)cc3)cc2O)cc1` are -8% and 1.18.
The like results for `Cc1ccc(N(Cc2ccco2)C(=O)c2ccc(C)c(S(C)(=O)=O)c2)cc1` were, in that order, -15% and 2.81.
On the same counts, the results for `CN(C)c1cccc(-c2nc(-c3cn(Cc4cccc(F)c4)nn3)no2)c1` are -15% and 2.85.
For `Cc1cc(-c2nc(C(C)C)nn2-c2ccccn2)cc(S(N)(=O)=O)c1C`, the “% Inhibition” value is -17% and the Z score is listed as 1.85.
The like results for `c1nc(NCc2cn([C@H]3CCOC3)nn2)c2sccc2n1` were, in that order, -9% and 1.62.
On the same counts, the results for `c1cc(-c2nc(-c3cccs3)no2)cc(-n2cnnn2)c1` are -1% and 0.13.
In the case of `CC(C)c1cc(-n2c(Cl)cncc2=O)ncn1`, the “% Inhibition” value is given as -15% and the Z score was determined as 1.42.
As for `COc1ccc(C(=O)NC(Cc2ccc(F)cc2)Cc2ccc(F)cc2)cc1`, the “% Inhibition” value was -4% and the Z score is recorded as 0.75.
The like results for `CCNC(=O)C1CC(c2cccc(OC)c2)NS(=O)(=O)N1C` (centres undefined) were, in that order, -23% and 2.04.
The like results for `CCc1nc(N(CCC(=O)N2CCN(CC)CC2)Cc2ccccc2)c2ccc(Cl)cc2n1` were, in that order, -1% and 0.13.
On to `COc1ccccc1CNC(=O)N1CCC[C@H]1c1ccc(O)cc1`, for which the “% Inhibition” value is on record as -11% and the Z score worked out at 1.46.
The like results for `O=C(O)[C@@H]1CCN(Cc2ccccc2)C[C@@H]1c1ccccc1` were, in that order, -28% and 3.34.
The like results for `COc1ccc(CNC(=O)c2nnn(Cc3nc(-c4ccc(C)cc4)oc3C)c2N)cc1OC` were, in that order, -12% and 1.81.
On the same counts, the results for `CCOc1cccc(CN2C(=O)C(C)C(C)C2=O)n1` (centres undefined) are -12% and 1.66.
`Cc1nn(C)c2ncc(-c3cc(C(F)(F)F)nn3C)cc12`: the “% Inhibition” value is reported as -5% and the Z score was determined as 0.94.
For `COc1ccc(CN2CCN(c3cc(Oc4ccc(Cl)cc4)ncn3)C[C@@H]2C)c(OC)c1`, the “% Inhibition” value is -5% and the Z score was found to be 0.6.
On the same counts, the results for `CCS(=O)(=O)N1C[C@@H]2CN(C(=O)c3sc(C)nc3C)C[C@]2(c2nc(C)no2)C1` are -6% and 0.76.
With `O=C(CCN(CCCN1CCOCC1)c1nc(-c2ccccc2Cl)nc2ccccc12)NCCN1CCOCC1`, the “% Inhibition” value was -7% and the Z score is reported as 0.79.
On the same counts, the results for `COC(=O)C[C@H](N)c1cccc(C)c1C` are -8% and 1.54.
For `CC(C)c1ccc(NC(=O)c2cn(Cc3ccc(NC(=O)c4cccc(F)c4)cc3)cn2)cc1`, the “% Inhibition” value worked out at 0% and the Z score is recorded as 0.05.
On the same counts, the results for `COCCC(C)(C)C(=O)N1CCC(OC[C@H]2CCCO2)CC1` are 1% and -0.15.
The like results for `CC(C)c1nnc(N[C@H]2C[C@@H](c3cc(=O)[nH]c(N4CCCC4)n3)C2)s1` were, in that order, 13% and -1.24.
The like results for `C[C@@H](C1CC1)N(C)C(=O)NCCS(=O)(=O)C(C)(C)C` were, in that order, -42% and 4.94.
Turning to `CCn1nccc1C(=O)N1CCN(Cc2cc(C)cc(C)c2)C(=O)C1`, the “% Inhibition” value was -2% and the Z score came to 0.21.
The like results for `COc1ccc(CN2C[C@@H](COc3cccc(F)c3)C[C@@H](C(=O)NCCN(C)C)C2)cc1OC` were, in that order, -8% and 0.88.
On the same counts, the results for `Cc1cc(S(=O)(=O)[C@H]2CS(=O)(=O)C[C@@H]2NCc2ccncc2)ccc1F` are -1% and 0.14.
